Measured values as given in the supplement of paper PMC11417369.
± gives the standard deviation of the averaged measurements. This is one part of the list.

system: PfAP2-I AP2 domain 3 (GST-tagged); test: gcPBM binding intensity (ln(normalized median fluorescence intensity)); higher = stronger DNA binding
How it was run: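 Binding intensity values are the highest Masliner-normalised natural-log median intensity among replicate spots of either probe orientation. The binding step lasted 1 h in 1× PBS with 1% milk, 0.2 mg/ml BSA, 0.5% salmon testes DNA and 0.03% Triton X-100, using GST-tagged P. falciparum DNA-binding domains expressed in E. coli on an Agilent 4 × 180k array of primer-extended double-stranded 36-bp intergenic genomic probes plus negative controls. Alexa488 anti-GST antibody and a 488 nm scan detected bound protein.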

Sequence | gcPBM binding intensity (ln)
TAACGCATGAATATAATATATATATATATAAAAATA [GTGCAC_negctrl_site218] | 7.67 ± 0.43
ATTGTATGCACGTCTGCACACTTTTTTTTTTTTTTT [CACACA_site2082] | 10.1 ± 0.11
GTTAATTGAAGATTCACACATAAATATATATATAAT [CACACA_site5482] | 7.5 ± 0.68
ATAATTCTAAATAAATGTACACACAAAAATAAATGT [XGTACX_site3547] | 7.99 ± 0.55
GTAACAAATAAAATAACACACATGTCGAAATGTATG [CACACA_site2971] | 7.69 ± 0.38
AAGAAAAACATTACGTGTACCAAAAGGCCTGTCAAC [XGTACX_site267] | 7.99 ± 0.83
AAAATGGGTTAGCACATACACACCAATATATTATAT [CACACA_site3082] | 7.8 ± 0.6
ATAATTATATAAATATATATAATATATATATGAAAA [XGTACX_negctrl_site357] | 7.38 ± 0.42
CAATTAAATATATGAACACACATGTGAACTTTCTAT [CACACA_site3977] | 7.5 ± 0.61
TATTAAATTATATAGACACACATTATATATATATAT [CACACA_site4345] | 9.15 ± 0.17
AAATACCTGATATATACACACTATGTTTTTCTTTTT [CACACA_site6680] | 7.77 ± 0.81
AAAAAGAAATATTTATGTACATAATAATAATATTTT [XGTACX_site4693] | 7.67 ± 0.47
AATATAGATACATATACACACACACCCATACATATA [CACACA_site9137] | 8.12 ± 0.42
TTTTTTACATCCATAAAACTTTTTCTCTTTTAAAAT [CACACA_negctrl_site1745] | 7.67 ± 0.7
AGAGAGAAAGGTATAACATGCGATAAATTTTAGAAG [TGCATGCA_site37] | 7.57 ± 0.61
ATATAGTTCGTTTATACACACATGATAAGATATTTA [CACACA_site1947] | 8.03 ± 0.54
AAATCACTTTTTAAGTGTACTTGGTCTTTCTCATTT [XGTACX_site7221] | 7.59 ± 0.69
ATGTAAATTATTATTCTATTGTTATATACACAATAT [XGTACX_negctrl_site332] | 7.73 ± 0.65
TTTTCTTGATTTTGTAGTACATTTTTACGATATTTT [XGTACX_site63] | 7.94 ± 0.55

Sequence | gcPBM binding intensity (ln)
CACATACATATATACACACACAAAATAATAAAATAA [CACACA_site2308] | 7.88 ± 0.17
TTTTTAAAAATAACAGAAAAGAATTACAGATTTTTT [XGTACX_negctrl_site472] | 7.41 ± 0.71
AAAATTATATTTTATAGAAATTTAAATAAATATATA [GTGCAC_negctrl_site199] | 7.21 ± 0.31
TTCTATAAGTATAAATGTACAAAAAAAACATCATTC [XGTACX_site5450] | 7.84 ± 0.58
CTCATAATTTCTGAACGTACGTATTTCTCATTTTTA [XGTACX_site7296] | 7.86 ± 0.47
CATATTCCAAGAATGTGTACATAATTTTTTTTTTTT [XGTACX_site4310] | 7.63 ± 0.21
ATTTTTTTTTAATGCAAAAGGTGATGATCGGTCATA [CACACA_negctrl_site959] | 7.86 ± 0.55
AAAATATGATATGAAAAATTTGTTATATATACATAA [CACACA_negctrl_site1529] | 7.53 ± 0.47
GACATTTGTGAGCTTGAGCCGTCAAACCACTAAATA [CACACA_negctrl_site552] | 7.7 ± 0.61
TAATTATAAATTATAGTGCATAAAATTGTAGCATAA | 10.5 ± 0.38
TGTATTAATATGGTAATACACACTAATATACTTTTG [CACACA_site1610] | 7.62 ± 0.37
AGGTCTGTTTTATATTGTACATAAAAAGTGCACATG [XGTACX_site4529] | 10.4 ± 0.32
AAAAAATTGAAGGAGTGTACATTTATACTTTATTTT [XGTACX_site8623] | 7.53 ± 0.64
TGTAGAATTTCCTGAACATGCAAATAATTTTCCTTA [TGCATGCA_site881] | 7.61 ± 0.54
AACATAATAAAAATGGATATAATTCAAAGTTTGTAA [TGCATGCA_negctrl_site529] | 7.46 ± 0.67
TGTTATTCGACATATACACACAAATAACAATTTAAA [CACACA_site5076] | 7.68 ± 0.49
ATTCAAAATAATCACAGTACACATGAGATTATCTTT [XGTACX_site2197] | 7.51 ± 0.45
TAATTTCTTATGTATTGTACAAATAATATATTATTT [XGTACX_site3066] | 7.68 ± 0.42
TTATTGAAAAACATAATATCTAAGAGGGTAATATAT [GTGCAC_negctrl_site599] | 7.74 ± 0.64

Sequence | gcPBM binding intensity (ln)
ACTTCATAAACATTTTGTACGTATGTATCTTTTTAT [XGTACX_site7012] | 8.03 ± 0.59
TTAATATGGAAATGTTGTACATTTCTTGAAGCATTC [XGTACX_site525] | 7.61 ± 0.54
TCCTTAGAAATATTGATCATAAACTGGAAAGGTATA [XGTACX_negctrl_site354] | 7.54 ± 0.59
TGTATTATTAATATTTGTACGTAATAATAAAAACAT [XGTACX_site3716] | 8.07 ± 0.39
TGGAAACAAAAACACACACACAAAAAAAAAAAAAAA [CACACA_site3209] | 8.06 ± 0.47
GAAATATATAAATTGACACACACATATATACATATA [CACACA_site8323] | 7.7 ± 0.41
CATAAATACAGATATACACACATATATATATATATA [CACACA_site4528] | 9.44 ± 0.69
TTTAACATAAATTAAACACACAATAAAATACATTAA [CACACA_site6699] | 7.58 ± 0.61
ATAATACATATAGAAGGTACACTATTATTTTCCTGA [XGTACX_site903] | 7.71 ± 0.45
ATTATCCATGCATTTACACACACACTAATAAAAATT [CACACA_site9358] | 8.85 ± 0.43
ATATATTTCTGTCAAGCACACATAATATTAATATAT [CACACA_site7993] | 8.24 ± 0.38
AATGATACTTAGGGGCATGTCTCTGGGGGCATAACC [CACACA_negctrl_site591] | 9.3 ± 0.13
TACAAATATAGATGCACACACATATAGGTATATGTG [CACACA_site7439] | 8.48 ± 0.099
TATATATAATTATAAGAACACACATATATATATATA [CACACA_site8786] | 9.11 ± 0.099
GTTATAAACAAAATAAATATATGAATATATAATAAT [XGTACX_negctrl_site96] | 7.46 ± 0.5
CATATTATATTTTCATGTACACATAACATATTTATA [XGTACX_site4787] | 8.04 ± 0.24
ATATAGTAAATGTTCACACATACAAATATATATATA [CACACA_site5518] | 8.87 ± 0.17
AAGTTTTCTTAAAGCTGTACTTTTTAAAAATAAAAT [XGTACX_site7716] | 7.59 ± 0.54
